Consider 59 compounds from ChEMBL document CHEMBL1201862, “PubChem BioAssay data set” (2004).

Structures are written as SMILES.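 Cells were grown in 96-well plates and exposed to each compound for 48 hours at five concentrations; endpoints were interpolated linearly between bracketing concentrations, or set to the highest concentration if not reached. GI50 = concentration required for 50% inhibition of growth.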 The source made the active and inactive calls. Rule as the data show it: active = GI50 up to about 1.1 µM and inactive = higher.

This assay concerns NCI-H322M. As to the kind of experiment: DTP human tumour cell line panel, 48 h.
For `Cc1nc2c(O)cccc2c(=O)[nH]1`, the GI50 (in general, the concentration that inhibits growth by half) is inactive: 877 µM.

Take `O=C(Nc1ccc2oc(=O)c(C(=O)O)cc2c1)Oc1ccccc1`: the GI50 is inactive: > 100 µM.

On to `COc1cc(C2C3=C(COC3=O)Oc3cc4c(cc32)OCO4)cc(OC)c1OC` (centres undefined), for which the GI50 was active: 0.0351 µM.

On to `O=C1CCC(c2ccccc2)=NN1c1nc2ccccc2s1`, for which the GI50 was inactive: 40.3 µM.

For the compound `COc1ccc(C(=O)C(CO)Oc2ccccc2OC)cc1OC` (centres undefined), the GI50 is inactive: > 100 µM.

In the case of `CC[C@]1(O)C(=O)OCc2c1cc1n(c2=O)Cc2cc3c(N)cccc3nc2-1`, the GI50 is inactive: > 100 µM.

For `Cc1c(C)c(C)c(-n2[nH]c(=O)n(C)c2=O)c(C)c1C`, the GI50 was inactive: > 100 µM.

As to `CS(=O)(=O)Nc1ccc2ccccc2c1`, the GI50 is inactive: > 100 µM.

In the case of `CSc1cc(Cl)c(C)cc1S(=O)(=O)NC(=O)NNc1ccc(Cl)cc1`, the GI50 is inactive: > 100 µM.

On to `O=c1[nH]c2nc3ccccc3c(=O)n2/c1=C/c1ccco1`, for which the GI50 was inactive: > 100 µM.

As to `O=C1NCC2(CCN(CCCC3(c4ccc(F)cc4)OCCO3)CC2)N1c1ccccc1`, the GI50 is inactive: > 100 µM.

For the compound `COc1ccc(/C=c2\s/c(=C3/SC(=S)N(c4ccccc4)C3=O)n(-c3ccccc3)c2=O)cc1`, the GI50 was inactive: > 100 µM.

Turning to `NNC(=O)N/N=C1\CNC(=O)C(=O)C1c1nc2ccccc2s1` (centres undefined), the GI50 was inactive: > 100 µM.

Take `O=C1NC(=S)NC(=O)C1=Cc1ccc[nH]1`: the GI50 is inactive: 24.5 µM.

With `CC1=C(C(=O)Nc2ccccc2)C(c2ccc(C(C)C)cc2)C(C(=O)Nc2ccccc2)=C(C)N1`, the GI50 was inactive: 30.5 µM.

In the case of `Clc1cccc(N2CCN(CCN3CCc4c([nH]c5ccccc45)C3c3cccnc3)CC2)c1` (centres undefined), the GI50 is inactive: > 61.2 µM.

Take `CC(C)=CCC[C@@H](C)C1=C(O)C(=O)C(C)=C(N)C1=O`: the GI50 was inactive: 25.8 µM.

Consider `O=C1c2ccccc2C(=O)c2c1oc(=O)c1ccccc21`, for which the GI50 is inactive: 6.81 µM.

For the compound `O=C1C(Cl)N(c2ccc([N+](=O)[O-])cc2)C1c1c[nH]c2ccccc12` (centres undefined), the GI50 was inactive: > 100 µM.

As to `CCOC(=O)c1c(C)n(C)c2c1cc(O)c1[nH]c3c(c12)CCCC3`, the GI50 is inactive: 17.6 µM.

Turning to `Nc1nc2c(ncn2CC2CCC(CO)C2)c(=O)[nH]1` (centres undefined), the GI50 is inactive: > 100 µM.

Consider `CC(=O)NC(CCCCNC(=O)NCCCl)C(=O)NCc1ccccc1` (centres undefined), for which the GI50 was inactive: > 100 µM.

Turning to `CCCCCCCCCCCCCCCCCCNc1ccn(C2OC(CO)C(OP(=O)(O)OCC(COP(=O)(O)OCC3OC(n4cc(F)c(NCCCCCCCCCCCCCCCCCC)nc4=O)CC3O)OC(=O)CCCCCCCCCCCCCCC)C2O)c(=O)n1` (centres undefined), the GI50 was inactive: > 100 µM.

In the case of `C[N+]1=c2c3cccc4cccc(c(=O)n2CCC1)c43`, the GI50 is inactive: 26.4 µM.

Turning to `CCN(CC)CCn1c2c3ccccc3ccc2c2oc(=O)c3ccccc3c21`, the GI50 was inactive: > 100 µM.

For `Cc1ccc2c(c1)C(=O)N(N(C)C)CC(=O)N2`, the GI50 was inactive: > 100 µM.

As to `Cc1c2cccc-2c(OCCOC(=O)n2ccnc2)cc2c1[nH]c1ccccc12`, the GI50 was inactive: 11.1 µM.

For `O=C1CSC(c2ccc(Cl)cc2)N1c1ccc(-n2c(-c3ccccc3)nc3ccccc3c2=O)cc1` (centres undefined), the GI50 was inactive: 34.1 µM.

Take `c1ccc2cc3c(cc2c1)nc1ccccn13`: the GI50 is inactive: > 100 µM.

Take `Cc1cc2c(=O)cc(-c3cccs3)oc2c(C(=O)O)c1C`: the GI50 is inactive: > 100 µM.

`CC(C)[C@@H]1CC[C@@H](C)C[C@H]1OC(=O)/C=C1/C2C=CC(O2)C1C(=O)O[C@@H]1C[C@H](C)CC[C@H]1C(C)C` (some centres undefined): the GI50 is inactive: > 100 µM.

`CC(C)[Si](OC1=CCC[C@H]2NC(=O)[C@@H](Cc3ccccc3)[C@@]12C)(C(C)C)C(C)C`: the GI50 is inactive: 11.8 µM.

Consider `CCN(CC)/C(SCc1ccccc1)=C(\C(Cl)=C(Cl)Cl)[N+](=O)[O-]`, for which the GI50 is inactive: 24.7 µM.

On to `N#Cc1cc([N+](=O)[O-])ccc1NC(=O)/C(=N\NC(=O)c1ccncc1)C(c1cnc2ccc([N+](=O)[O-])cc2n1)[N+](=O)[O-]` (centres undefined), for which the GI50 is inactive: 4.6 µM.

For `C=C1C[C@@H](O)[C@@H](Br)C(C)(C)[C@]12CCC(C)(Cl)C(Br)C2` (some centres undefined), the GI50 is inactive: 32 µM.

`CC(=O)Oc1c(C)c2c(O)c3c1C1=C(OCOC1=C(C)C3=O)/C(C)=C/C(C)(O)C(O)C(C)C(O)C1C(=O)OC(C(C)C1O)C(C)(O)/C=C\C=C(C)C(=O)N2` (centres undefined): the GI50 was inactive: 50 µM.

Turning to `CNc1nnc(CCCCCCCCc2nnc(NC)o2)o1`, the GI50 was inactive: > 100 µM.

In the case of `CCC(C(=O)O)c1ccc(OCc2ccccc2)cc1` (centres undefined), the GI50 was inactive: > 100 µM.

With `CC(=O)c1nc2ccccc2n1C(C)C(=O)c1ccccc1` (centres undefined), the GI50 was inactive: 82.8 µM.

Regarding `CCCCC1Cc2cc(O)ccc2-c2nc3cc(O)ccc3n21.CCCCC1Cc2cc(O)ccc2-c2nc3ccc(O)cc3n21` (centres undefined), the GI50 is inactive: 25.6 µM.

For the compound `CC(=O)N(C)c1ccc2c(ccc[n+]2[O-])c1[N+](=O)[O-]`, the GI50 is inactive: > 100 µM.

For `CN(C)CCNC(=O)c1cccc2nc3c(Cl)cccc3nc12`, the GI50 was inactive: 5.26 µM.

For the compound `O=C1CCC(=O)C12CCc1ccccc12`, the GI50 is inactive: > 100 µM.

Regarding `Cc1cc(S(=O)(=O)Nc2nc(N)n(C)n2)c(S)cc1Cl`, the GI50 is inactive: > 10 µM.

`CCOC(=O)/C=C(\C(=O)OCC)n1ccc(=O)n(CC(=O)OCC)c1=O`: the GI50 is inactive: 17.3 µM.

As for `CCOC(=O)/C=C(\C(=O)OCC)n1cc(C)c(=O)n(Cc2cn(CCCCOC(C)=O)nn2)c1=O`, the GI50 is inactive: 20.1 µM.

In the case of `COC(OC)C(C)CC(=O)N(C)C` (centres undefined), the GI50 is inactive: > 100 µM.

For `Fc1ccc(F)c(/C=N/C23CC4CC(CC(C4)C2)C3)c1`, the GI50 is inactive: > 10 µM.

Take `CC1=C2C(O)C(C(C)C(=O)NCC(C)C)CCC2(C)C=CC1=O` (centres undefined): the GI50 is inactive: > 100 µM.

Regarding `CCOC(=O)c1ccc(NCc2ccc3oc(=O)c(-c4ccccc4)nc3c2)cc1`, the GI50 is inactive: > 100 µM.

For the compound `CCCCCCCC(=O)NCC(O)CNC(=O)CCCCCCC`, the GI50 is inactive: > 100 µM.

For `COC(=O)C1=C(OC(=O)/C(=C/c2ccc(Cl)cc2)c2ccccc2)C(C(=O)OC)[C@@]2(O)[C@@H](C(=O)OC)[C@H](C)C[C@@H]1[C@@H]2C(=O)OC` (some centres undefined), the GI50 was inactive: > 100 µM.

Take `COc1ccc2c(c1)CC[C@@H]1C2CC[C@](C)(C#N)C1CC#N` (some centres undefined): the GI50 is inactive: > 100 µM.

`c1ccc(C2(c3ccccc3)SSC3(S2)C2CC4CC(C2)CC3C4)cc1` (centres undefined): the GI50 is inactive: > 100 µM.

As to `CC(C)(C)C(=O)O[C@@H]1COC2C(O)COC21` (some centres undefined), the GI50 is inactive: > 100 µM.

Regarding `CN(C)CCNC(=O)c1cccc2cc3c(Cl)cccc3nc12`, the GI50 was inactive: 1.61 µM.

On to `Cc1ccc2c(O)cc(-c3ccc(Cl)s3)nc2n1`, for which the GI50 was inactive: 1.46 µM.

In the case of `BrC(c1cccc2ccccc12)c1cccc2ccccc12`, the GI50 was inactive: 21.6 µM.

In the case of `c1ccc2c(c1)[nH]c1c[nH]c3c4cccnc4nc-3c12`, the GI50 is inactive: 16.1 µM.
